# From the RNAGym collection of RNA variant scans (doi:10.1093/nar/gkz1192)
# The source gives no read counts; variants with many changes may rest on few reads.
# B1: CPEB3 Ribozyme (parent)
# chain: UAACAGGGGGCCACAGCAGAAGCGUUCACGUCGCAGCCCCUGUCAGAUUCUGGUGAAUCUGCGAAUUCUGCUGUAUAUCUC
# Variants of: B1
# Assay: self-cleavage, relative activity (ratio to wild type); higher = more cleavage; in vitro, sequencing
# In short: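 For each CPEB3 ribozyme variant, relative activity is its cleaved/total read fraction divided by the unmutated ribozyme's. Barcoded error-prone PCR libraries were transcribed by T7 RNA polymerase (5 hours, 37°C) and held in DNase I for 15 min before an EDTA stop, with cleavage occurring throughout. Template-switching reverse transcription and Illumina sequencing were used to read the RNAs. A 5-read minimum applied, and results are the mean of three batches.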
row,Variant,self-cleavage
1,UAACAGGGGGCCACAGCAUAAGCGUUCUCGUCGCAGCCCCUGUCAGAUUCAGGUGAAUCUGCGAAUUCUGCUGUAUAACUC [G19U A28U U51A U78A],0.12
2,UAACAGGGGGCCACAGCAUAAGCGUUCGCGUCGCAGACCCUGUCAGAUUCUGGUGAAUCUGCGAAUUCUGCUGUAUAUCUC [G19U A28G C37A],0.09
3,UAACAGGGGGCCACAGCAUAAGCGUUCACGUCGCAACCCCUGACAGAUUCUGGUGGAUCUGCGAAUCCUGCUGUAUACCCC [G19U G36A U43A A56G U67C U78C U80C],0.07
4,UAACAGGGGGCCACAGCAUAAGCGUUCACGUCGCAGCUCCUGUCAGACUUUGGUGAAUCAGCGAAUUCUGCUGUAUAUCUC [G19U C38U U48C C50U U60A],0.04
5,UAACAGGGGGCCACAGCAUAAGCGUUCACGUCGCAGCCCCUGUCUGAUUCUGGAGAAUCUGCGAAUUCUGCUGUAUAUCUC [G19U A45U U54A],0.17
6,UAACAGGGGGCCACAGCAUAAGGGUUCACGUCGCAGCCCCUGUCAGGUUCUGGUGAAUCUGUGAAUUCUGCUGUUUAUCUC [G19U C23G A47G C62U A75U],0.05
7,UAACAGGGGGCCACAGCAUGAGCGUUCACGUCCCAGCCCCUGACAGAUUCUGGUGAAUCAGCGAAUUCUGCUGUAUAUCUC [G19U A20G G33C U43A U60A],0.14
8,UAACAGGGGGCCACAGCAUAAGCGCUCCCGCCGCAGCCCCUGUCAGAUUCUGGUGAAUCUGCGAAUUCUGCAGUAUAUCUC [G19U U25C A28C U31C U72A],0.09
9,UAACAGGGGGCCACAGCAUAAGCGUUCACGUCGCAGCCCCUGUCGGAUCCUGGUGAAUCUGCGAAUUCUGCUGAAUAUCUC [G19U A45G U49C U74A],0.15
10,UAACAGGGGGCCACAGCAUAAGCGUUCACGUCGCAGCCCCUGUCAGAUUAUGGUGAAUCUGCGAAUUCUGCUGUUUAUCUC [G19U C50A A75U],0.25
11,UAACAGGGGGCCACAGCAUAGGCGUUCACGUCGCAGCCCCUGUCAGAUUCUGGUGAAUCUGCGAAUUCUGCUGGAUAUCUC [G19U A21G U74G],0.72
12,UAACAGGGGGCCACAGCAUAAGCGCUCACGUCGCAGCCCCUGUCAGAUUCUGGUGUAUCUGCGAAUUCUGCCGUAUAUCUC [G19U U25C A56U U72C],0.14
13,UAACAGGGGGCCACAGCAUAAGCGUCCACGUCGCAGCCCCUGUCAGAUUCUGGUGAAUCUGCGAGUUCUGCUGUAUAUCUC [G19U U26C A65G],0.16
14,UAACAGGGGGCCACAGCAUAAGCGUUCACGUCGCAGCCCCGGUCGGAUUCUGGUGAAUCUGCGAAUUCUGCCGUAUAUCGC [G19U U41G A45G U72C U80G],0.16
15,UAACAGGGGGCCACAGCAUAAGCGUCCACGUCGCGGCCCCUGCCAGAUUCUGGUGGAUCUGCGAAUUCUGCUGUAUAUCUC [G19U U26C A35G U43C A56G],0.08
16,UAACAGGGGGCCACAGCAUAAGCGUUAACGUCGCAGCCCCUGUCGGAUUCUGGUGAAUCUGCGAAUUCUGCUGUAUAUCUC [G19U C27A A45G],0.07
17,UAACAGGGGGCCACAGCAUAAGCGAUCACGUCGCAGCCCCUGUCAGAUUCAGGUGAAUCUGCGUAUUCUGCUGUUUAUCUC [G19U U25A U51A A64U A75U],0.1

row,Variant,self-cleavage
1,UAACAGGGGGCCACAGCAUAAGCGUUCACGUCGCAGCCCCUGUCAGGUUCUGGUGAAUCUGCGAAUUCUGCUGUGUAUCUC [G19U A47G A75G],0.42
2,UAACAGGGGGCCACAGCAUAAGCGCUCACGUCGCAGCCCCCGUCAGAUUCUGGUGAAUCUGCGAAUUCUGCUGUAUAUCUC [G19U U25C U41C],0.14
3,UAACAGGGGGCCACAGCAUAAGCGUUCACGUCGCGGCCCCUGUCAGAUUCUGGUGAAUCUGCGAACUCUGCUGUAUAUCUC [G19U A35G U66C],0.27
4,UAACAGGGGGCCACAGCAUGAGCGUUCACGUCGCAGCCGCUGUCAGGUUCAGGUGAAUCUGCGAAUUCUGCCGUAUAUCUC [G19U A20G C39G A47G U51A U72C],0.07
5,UAACAGGGGGCCACAGCAUAAGCGCUCACGUCGCAGCCCAUGUCGGUUUCUGGUGAGUCCGCGAAUUCUGCUGUAUAUCUC [G19U U25C C40A A45G A47U A57G U60C],0
6,UAACAGGGGGCCACAGCAUAAGCGUUCACGUCGCUGCCCCUGCCAGACUCUGGUGAGUCUGCGAAUUCUGCUGUAUAUCUC [G19U A35U U43C U48C A57G],0.13
7,UAACAGGGGGCCACAGCAUAAGCGUUCACGCCGCAGCCCCUGUCGGAUUCUGGUGAAUCUGCGAAUUCUGCUGUAUAUCUC [G19U U31C A45G],0.21
8,UAACAGGGGGCCACAGCAUAAGCGUUCACGUCGCUGCCCCUGUCAGAUUCUGCUGAGUCUGCGAAUUCUGCUGUAUAUCUC [G19U A35U G53C A57G],0.06
9,UAACAGGGGGCCACAGCAUAAGCGUUCACGUCGCAGCCCCUGUCCGAUUCUGGUGAAUCUGCGAAUUCUGCCGUAUAUCAC [G19U A45C U72C U80A],0.25
10,UAACAGGGGGCCACAGCAUAAGCGUACACGUCGCAGCCCCUGUCAGAUUCUGGUGAAUCUCCGAAUUCUGCUCUAUAUCUC [G19U U26A G61C G73C],0.23
11,UAACAGGGGGCCACAGCAUUAGCGUUCACGUCGCAGCCCCUGUCAGUUUCUGGUGAAUCUGCGAGUUCUGCUGUAUAUCUC [G19U A20U A47U A65G],0.12
12,UAACAGGGGGCCACAGCAUAAGCGCUCACGUCGCAGCGCCUGUCAGAUCCUGGUGAACCUGGGGAUUCUGCUGUAUAUCUC [G19U U25C C38G U49C U58C C62G A64G],0.07
13,UAACAGGGGGCCACAGCAUAAGCGUUCACGUCGCAGCCCCUGUCAGAUUCUGGUGGGUCUGCGAAUUCUGCUGUAUUUCUC [G19U A56G A57G A77U],0.07
14,UAACAGGGGGCCACAGCAUAAGCGUUCACGUCGCAGCCCCUGUAGGAUUCUGGUGAAUCUGCGAAUUCUGCUGUAUAUCUC [G19U C44A A45G],0.07
15,UAACAGGGGGCCACAGCAUAGGCGUACACGUCGCAGCCUCUUUCAGAUUCUGAUGAAUCUGCGAAUUCAGCUGUAUAUCUC [G19U A21G U26A C39U G42U G53A U69A],0.06
16,UAACAGGGGGCCACAGCAUGAGCGUUUACGUCGCUGCCCCUGUCAGAUUCUGGUGAAUCUGUGAGUUCAGCUGUAUAUCUC [G19U A20G C27U A35U C62U A65G U69A],0.03
17,UAACAGGGGGCCACAGCAUAAGCGUUCACUUCGCAGCCCCUGUCAGAUUCUGGUGAAUCUGCGAAUUCAGCUGUAUAUCUC [G19U G30U U69A],0.15
